This passage reports CC50 results from PubChem BioAssay AID1347044 (National Center for Advancing Translational Sciences (NCATS), 2019).

The list shows a part of the results. The main result of the screen is listed elsewhere. These columns were measured beside it and carry no call. Most of these compounds were active or inconclusive in the main read-out, so they are no random draw. The note in brackets gives the kind of curve behind each potency; many fits are weak.

In general, CC50 refers to the concentration at which the toxic effect on the cells reaches its halfway point.
Tags describe the fitted curve by direction and shape.

This test can be described thus: Natriuretic polypeptide receptor (hNpr1) antagonism - Confirmation. Further: nearly all actives have a fitted effect of over 70% in size. The conditions noted are these: HEK293 hNpr1 cGMP GloSensor luminescence, ANP-stimulated; measured here: HEK-hNpr1 cytotoxicity, CellTiter-Glo. In a few lines:
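HEK293 cells co-expressing hNpr1 and GloSensor cGMP sensor preloaded 2 h with 2% GloSensor reagent, compounds added 30 min at room temperature, then 0.1 nM hNppA for 20 min; luminescence read before and after agonist. Cytotoxicity counter-screen run.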
For `COc1ccc(C(=O)N2CCC(Cc3nc(-c4ccc(F)cc4)no3)CC2)c(OC)n1`, the CC50 was 5.44 µM [falling, full curve]. Next, `OC1CC(c2cc(NCCOCc3ccc(Cl)cc3)ncn2)C1` (configuration not stated): 19.3 µM [falling, partial curve].

As for `O=C(C1CCC1)N1CCC(n2cc(-c3nc(-c4ccccc4)no3)nn2)CC1`, the CC50 was 24.3 µM [falling, partial curve]. Consider `O=C1N(C2CCCCC2)C[C@H]2CN(Cc3ccc(C(F)(F)F)cc3)CCN12`, for which the CC50 was 15.7 µM [falling, partial curve].

With `Clc1cccc(CN2CC[C@H](c3nc4ccccc4[nH]3)C2)c1`, the CC50 is 35.3 µM [falling, partial curve]. Consider `CCN(CC)C(=O)N1CC(Oc2ccc(-c3noc(COC)n3)cc2)C1`, for which the CC50 was 13.7 µM [falling, partial curve]. As for `Cn1nccc1CN1CCn2c(nn(-c3ccc(C(F)(F)F)cc3)c2=O)C1`, the CC50 was 30.6 µM [falling, single point].

Take `Cc1cccc(N2CCN(C(=O)CC3CCCCN(Cc4ccccc4)C3=O)CC2)c1` (configuration not stated): the CC50 was 21.7 µM [falling, partial curve]. Take `O=C(CN1C(=O)NC(c2ccc(Cl)cc2)C2=C1COC2=O)Nc1ccc(Br)cc1F` (configuration not stated): the CC50 was 27.3 µM [falling, single point]. As to `Cc1ccccc1-c1cnc2[nH]cc(CC(=O)NCc3cccnc3)c2c1`, the CC50 is 28 µM [falling, partial curve]. `COc1ccc(-c2noc(CC3CCN(C(=O)c4ccc(OC)nc4)CC3)n2)cc1`: the CC50 was 8.62 µM [falling, partial curve]. In the case of `COc1ccc(-c2noc(COC(=O)C3=CN(C)S(=O)(=O)N=C3C)n2)cc1`, the CC50 is 17.2 µM [falling, partial curve]. For the compound `COc1ccccc1CN1CCc2nc(C(=O)Nc3ccc(Cl)cc3)oc2CC1`, the 50% cytotoxic concentration (CC50) was 25 µM [falling, partial curve]. For the compound `CC(C)c1ccc(NC(=O)C2CCN(c3cc(C(F)(F)F)ncn3)CC2)cc1`, the CC50 was 15.3 µM [falling, partial curve]. Consider `CCN(CC)C(=O)N1CC(Oc2ccc(-c3nc(C)no3)cc2)C1`, for which the CC50 is 21.7 µM [falling, partial curve, poor fit]. For `N#Cc1cccnc1N1CCC(NC(=O)c2ccc3nccn3c2)CC1`, the CC50 is 19.3 µM [falling, partial curve].

As for `C[S+](=O)([O-])CCn1ncc2cc(OCc3cccc(-c4ccc(Cl)cc4)c3)ccc21`, the CC50 is 31.4 µM [falling, partial curve, poor fit]. `O=C(c1cccc(F)c1)N1CCC(Cc2nc(-c3ccccc3)no2)CC1`: the CC50 was 15.3 µM [falling, partial curve]. As for `Cc1nc(N2CCC(C(=O)NC3CCCCCC3)CC2)cc(C(F)(F)F)n1`, the CC50 was 13.7 µM [falling, partial curve]. Next, `COc1ccc(C2=NOC3(CCN([S+](=O)([O-])c4cccc(C(F)(F)F)c4)C3)C2)cc1` (configuration not stated): 30.6 µM [falling, single point]; `OC1CC(c2cc(N3CCC(Cc4noc(C5CC5)n4)CC3)ncn2)C1` (configuration not stated): 0.968 µM [falling, full curve]; `CN(C)c1ccc(C(=O)NCC2CCN(c3cc(-c4ccc(Cl)cc4)[nH]n3)CC2)cc1`: 19.3 µM [falling, partial curve]. `O=C(C1COc2ccccc2O1)N1CCN(c2cc(-c3ccc(Cl)cc3)[nH]n2)CC1` (configuration not stated): the CC50 is 24.3 µM [falling, partial curve].

Regarding `CCCc1ccc(S(=O)(=O)N(C)CC2CCOCC2)cc1`, the CC50 was 27.3 µM [falling, single point]. For `CN1CCN(Cc2ccc(Nc3cnc4ccc(-c5ccccc5)nn34)cc2)CC1`, the CC50 is 25 µM [falling, partial curve].

In the case of `COc1ccc(-c2noc(CC3CCN(C(=O)c4cc(Cl)ccc4F)CC3)n2)cc1`, the CC50 is 17.2 µM [falling, partial curve]. For `COc1ccc(CC(=O)NC2CCN(c3cc(-c4ccc(Cl)cc4)[nH]n3)CC2)cc1OC`, the CC50 was 24.3 µM [falling, partial curve]. Regarding `COc1cccc(CNC(=O)C2CCN(c3cc(C(F)(F)F)ncn3)CC2)c1`, the CC50 was 21.7 µM [falling, partial curve]. Consider `O=C(c1cccs1)N1CCC2(CC1)CC(Cc1ccc(F)cc1)CCO2` (configuration not stated), for which the CC50 is 24.3 µM [falling, partial curve]. Next, `O=C(c1cccc(Cl)c1)N1CCCC(n2cc(-c3nc(-c4ccccc4)no3)nn2)C1` (configuration not stated): 24.3 µM [falling, partial curve]; `Cc1ccccc1OCC(=O)NC1CCN(c2cc(-c3ccccc3)[nH]n2)CC1`: 24.3 µM [falling, partial curve]; `COc1cccc(-c2cc(C3CCN(S(=O)(=O)c4ccc(C(C)=O)cc4)CC3)[nH]n2)c1`: 24.3 µM [falling, partial curve]. Next, `O=C(Nc1ccccc1)c1cnc2c(c1)N(C(=O)Cc1ccc(O)cc1)CCC2`: 35.3 µM [falling, partial curve].

`Cc1ccsc1C(=O)N1CCC2(CC1)N=C(c1cccc(Br)c1)NO2`: the CC50 was 21.7 µM [falling, partial curve].

`CC1=NS(=O)(=O)N(C)C=C1C(=O)OCc1nc(-c2ccccc2F)no1`: the CC50 is 43.2 µM [falling, single point]. For `CC1=C[C@@H](CNC(=O)C2CC2)[C@H](C(C)C)C[C@H]1Cc1nc2ccccc2n1C`, the CC50 was 35.3 µM [falling, partial curve]. Turning to `O=C(NCc1ccccc1)c1nc2c(o1)CCN(Cc1ccc(F)cc1)CC2`, the CC50 was 35.3 µM [falling, partial curve]. Regarding `O=C1OCC2=C1C(c1ccc(Cl)cc1)NC(=O)N2CC(=O)N1CCC(Cc2ccccc2)CC1` (configuration not stated), the CC50 is 21.7 µM [falling, partial curve]. `CC(C)c1noc(-c2cn(C3CCN(C(=O)c4ccc(F)cc4Cl)C3)nn2)n1` (configuration not stated): the CC50 is 21.7 µM [falling, partial curve]. As to `COc1ccc(C2Cn3nnc(C(=O)NC4CCCCCCC4)c3CO2)cc1` (configuration not stated), the CC50 was 24.3 µM [falling, partial curve].

`Cc1nn2c(c1-c1ccccc1-c1ccccc1)N(Cc1ccc(O)cc1)CCC2`: the CC50 is 62.7 µM [falling, single point]. Take `O=C(NCc1ccccc1)c1nc2c(o1)CCN(Cc1ccc(F)c(Cl)c1)CC2`: the CC50 is 31.4 µM [falling, partial curve].

Take `Cc1cc(OCCN2CCOCC2)c(C)c2c1CC[C@@H]([C@H](C)C(=O)N1CCCCC1)C2`: the CC50 was 31.4 µM [falling, partial curve].

Regarding `COCc1nc(-c2ccc(OC3CCN(C(=O)c4nn(C)c5ccccc45)C3)cc2)no1` (configuration not stated), the 50% cytotoxic concentration (CC50) is 21.7 µM [falling, partial curve]. Take `O=C(NC1CCCCC1)N1CCC(c2noc(-c3ccccc3)n2)C1` (configuration not stated): the CC50 is 30.6 µM [falling, single point]. `O=C1COc2ccc(-c3ccc(Cl)cc3)nc2CN1Cc1ccccc1`: the CC50 is 62.7 µM [falling, single point]. `CN(Cc1cccnc1)c1ccc2ncc(Nc3cc(F)cc(N4CCOCC4)c3)n2n1`: the CC50 is 31.4 µM [falling, partial curve, poor fit].

With `CCOc1ccccc1C(=O)NC1CCN(c2cc(C(F)(F)F)nc(C)n2)CC1`, the CC50 was 21.7 µM [falling, partial curve].

In the case of `O=C(N1CCN(c2cc(-c3ccc(Cl)cc3)[nH]n2)CC1)C1(c2ccccc2)CC1`, the CC50 is 24.3 µM [falling, partial curve]. In the case of `Cn1cccc1CN1CCn2c(nn(-c3ccc(Cl)cc3)c2=O)C1`, the 50% cytotoxic concentration (CC50) is 24.3 µM [falling, partial curve, poor fit].

As for `C[S+](=O)([O-])NCCn1ccc2cc(OC3CCN(c4ncc(F)cn4)CC3)cnc21`, the CC50 was 28 µM [falling, partial curve]. `COc1ccc(Cl)cc1C(=O)N1CCN(C(=O)c2nnn3c2COC(c2ccccc2)C3)CC1` (configuration not stated): the CC50 was 38.5 µM [falling, single point]. Consider `N#Cc1ccc(NC(=S)N[C@H]2CO[C@H]3[C@@H]2OC[C@H]3OC(=O)Nc2ccccc2)cc1`, for which the CC50 is 31.4 µM [falling, partial curve]. On to `CCOc1cc2c(cn1)NCCN(Cc1ccncc1Cl)C2`, for which the CC50 was 31.4 µM [falling, partial curve]. For the compound `Cc1nn2c(c1-c1ccccc1[S+](C)(=O)[O-])N(CCCc1ccccc1)CCC2`, the CC50 is 70.3 µM [falling, single point].

Regarding `COc1ccc(C(=O)N2CCCN(c3cc(-c4ccc(Cl)cc4)[nH]n3)CC2)cc1F`, the CC50 is 19.3 µM [falling, partial curve].

Take `COc1ccc(C(=O)N2CCC(Cc3nc(-c4ccccc4)no3)CC2)cc1OC`: the CC50 was 9.68 µM [falling, partial curve].

With `CC(C)c1noc(-c2cn(C3CCN(C(=O)c4ccc(OC(F)(F)F)cc4)C3)nn2)n1` (configuration not stated), the CC50 was 15.3 µM [falling, partial curve]. For `Cc1ccc(C2Cn3nnc(C(=O)N4CCN(C(=O)Cc5cccc(F)c5)CC4)c3CO2)cc1` (configuration not stated), the CC50 is 21.7 µM [falling, partial curve]. On to `CCCc1ccc(S(=O)(=O)NC2CCN(c3ccc(=O)n(CC4CC4)n3)CC2)cc1`, for which the CC50 was 19.3 µM [falling, partial curve]. As to `N#Cc1cccc(CN2CCC(C3=NC(O)c4cc(F)ccc4N3)CC2)c1` (configuration not stated), the CC50 is 15.3 µM [falling, partial curve].

Regarding `NC(=O)Cc1c[nH]c2ncc(-c3ccccc3Oc3ccccc3)cc12`, the CC50 is 35.3 µM [falling, partial curve].
